Consider twelve compounds from the supplement of paper PMC4604168 (melanoma cell lines).

The structures appear in SMILES notation. The list shows a part of the results. Repeats are few or missing, and single values can be far off.
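Also: cells treated in 1,536-well plates, then fixed and DAPI-stained, with nuclei counted from automated high-throughput microscope images.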

This test has as its system UACC62. The experiment in a line: cell count relative to DMSO control; melanoma cells; higher = more viable cells. As to conditions: library dose: standard library concentration; 72 h.
Compound `N#CC[C@H](C1CCCC1)n1cc(-c2ncnc3[nH]ccc23)cn1` [ruxolitinib] + O=C(O)c1ccc(-c2c[nH]c3ncc(-c4ccccc4)cc23)cc1C1CCCC1 [GSK650394] (first compound 5 µM, partner dose 0.8 µM) registered a cell count of 93.7%. In turn, `CC[C@]1(O)C[C@H]2CN(CCc3c([nH]c4ccccc34)[C@@](C(=O)OC)(c3cc4c(cc3OC)N(C=O)[C@H]3[C@@](O)(C(=O)OC)[C@H](OC(C)=O)[C@]5(CC)C=CCN6CC[C@]43[C@@H]65)C2)C1` [vincristine] + OCCn1cc(-c2cnc3nnn(Cc4ccc5ncccc5c4)c3n2)cn1 [PF04217903] (first compound 0.0005 µM, partner dose 5 µM) showed a cell count of 73.1%.

The compound `Cc1cc(Nc2cc(N3CCN(C)CC3)nc(Sc3ccc(NC(=O)C4CC4)cc3)n2)n[nH]1` [Tozasertib] + CC1(C)NC(=O)N(c2ccc([N+](=O)[O-])c(C(F)(F)F)c2)C1=O [nilutamide] (first compound 0.03 µM, partner dose 5 µM) showed a cell count of 92.9%. Consider `Cc1cc(Nc2cc(N3CCN(C)CC3)nc(Sc3ccc(NC(=O)C4CC4)cc3)n2)n[nH]1` [Tozasertib] + NC(=O)Nc1cc(-c2cccc(F)c2)sc1C(=O)N[C@H]1CCCNC1 [AZD7762] (first compound 0.03 µM, partner dose 0.1 µM), for which the cell count was found to be 55.6%. `Cc1cc(Nc2cc(N3CCN(C)CC3)nc(Sc3ccc(NC(=O)C4CC4)cc3)n2)n[nH]1` [Tozasertib] + CN(NC(=O)CC(=O)NN(C)C(=S)c1ccccc1)C(=S)c1ccccc1 [STA4783] (first compound 0.03 µM, partner dose 0.03 µM) displayed a cell count of 39.5%. The compound `Cc1cc(Nc2cc(N3CCN(C)CC3)nc(Sc3ccc(NC(=O)C4CC4)cc3)n2)n[nH]1` [Tozasertib] + C=CCn1c(=O)c2cnc(Nc3ccc(N4CCN(C)CC4)cc3)nc2n1-c1cccc(C(C)(C)O)n1 [MK1775] (first compound 0.03 µM, partner dose 0.1 µM) showed a cell count of 59.1%.

In turn, `Cc1cc(Nc2cc(N3CCN(C)CC3)nc(Sc3ccc(NC(=O)C4CC4)cc3)n2)n[nH]1` [Tozasertib] + Cc1ccc(NC(=O)c2cccc(N(C)C)c2)cc1NC(=O)c1ccc(O)cc1 [ZM336372] (first compound 0.03 µM, partner dose 10 µM) came in with a cell count of 75.2%. The compound `CC[C@]1(O)C[C@H]2CN(CCc3c([nH]c4ccccc34)[C@@](C(=O)OC)(c3cc4c(cc3OC)N(C=O)[C@H]3[C@@](O)(C(=O)OC)[C@H](OC(C)=O)[C@]5(CC)C=CCN6CC[C@]43[C@@H]65)C2)C1` [vincristine] + C[C@@H]1CCN(C(=O)CC#N)C[C@@H]1N(C)c1ncnc2[nH]ccc12 [CP690550] (first compound 0.0005 µM, partner dose 5 µM) displayed a cell count of 70.5%. As for `Cc1cc(Nc2cc(N3CCN(C)CC3)nc(Sc3ccc(NC(=O)C4CC4)cc3)n2)n[nH]1` [Tozasertib] + CC(C)(C)c1cnc(CSc2cnc(NC(=O)C3CCNCC3)s2)o1 [SNS-032] (first compound 0.03 µM, partner dose 0.05 µM), the cell count came out at 77.8%. Consider `CC[C@]1(O)C[C@H]2CN(CCc3c([nH]c4ccccc34)[C@@](C(=O)OC)(c3cc4c(cc3OC)N(C=O)[C@H]3[C@@](O)(C(=O)OC)[C@H](OC(C)=O)[C@]5(CC)C=CCN6CC[C@]43[C@@H]65)C2)C1` [vincristine] + C=CCn1c(=O)c2cnc(Nc3ccc(N4CCN(C)CC4)cc3)nc2n1-c1cccc(C(C)(C)O)n1 [MK1775] (first compound 0.0005 µM, partner dose 0.1 µM), for which the cell count was 65.1%.

In turn, `CC[C@]1(O)C[C@H]2CN(CCc3c([nH]c4ccccc34)[C@@](C(=O)OC)(c3cc4c(cc3OC)N(C=O)[C@H]3[C@@](O)(C(=O)OC)[C@H](OC(C)=O)[C@]5(CC)C=CCN6CC[C@]43[C@@H]65)C2)C1` [vincristine] + Cn1cncc1[C@@](N)(c1ccc(Cl)cc1)c1ccc2c(c1)c(-c1cccc(Cl)c1)cc(=O)n2C [tipifarnib] (first compound 0.0005 µM, partner dose 0.05 µM) displayed a cell count of 69.8%. Next, `N#CC[C@H](C1CCCC1)n1cc(-c2ncnc3[nH]ccc23)cn1` [ruxolitinib] + NCC(=O)Nc1ccc(-n2nc(C(F)(F)F)cc2-c2ccc3c(ccc4ccccc43)c2)cc1 [OSU03012] (first compound 5 µM, partner dose 5 µM): 52.8%.
